The whole screen tested about 52,000 compounds, of which about 1,700 (3.3%) were called active. Rule as the data show it: active = survival mostly below about 52% (no sharp cut-off); inactive = mostly above about 56%. This is one part of the list.
System: Wild type
Experiment: S. aureus survival, RN4220 and DeltatarO strains – OD600, teichoic acid synthesis inhibitors, primary screen (AID 463173)
Conditions: S. aureus RN4220 wild type/DeltatarO growth, OD600, 18 h, stronger effect = lower value, screened at 18.75 µg/mL (by protocol)

SMILES	survival
Fc1ccc(NCc2ccccc2-c2nnc(-c3ccccc3Cl)o2)cc1	inactive: 89%
Cc1ccc(CNc2nnc(C)c3nnn(Cc4ccc(F)cc4)c23)cc1	inactive: 96%
CC(=O)Nc1ccc(I)cc1C(=O)O	inactive: 109%
CC1=C(c2ccc(Cl)cc2)S(=O)(=O)N=C1N1CCN(c2cccc(C)c2C)CC1	inactive: 91%
Cc1cccc(NC(=O)CSc2nc3ccc(NC(=O)c4ccccc4)cc3s2)c1	inactive: 84%
COc1cccc(CN2C(=O)c3ccccc3Sc3ccc(C(=O)OCc4ccco4)cc32)c1	inactive: 72%
Cc1ccc(-n2ccn(CC(=O)NCCc3ccccc3)c(=O)c2=O)cc1C	inactive: 90%
CCCCOc1ccc(C(=O)N(Cc2ccc(N(C)C)cc2)Cc2ccco2)cc1	inactive: 80%
CC(C)(C)c1ccc(-c2nc(NC(=O)CSc3ncnc4sc5c(c34)CCCC5)ns2)cc1	inactive: 73%
CCSc1nc2n(n1)C(c1ccc(Cl)cc1Cl)C(C(=O)Nc1ccccc1C)=C(C)N2 (stereo not given)	inactive: 76%
Cc1ccc(-n2ncc3c(NCc4ccccc4)ncnc32)cc1Cl	active: -6%
COc1ccc(N2CC(NC(=O)/C=C\c3ccc4c(c3)OCO4)CC2=O)cc1OC (stereo not given)	inactive: 80%
CCc1ccc(NC(=O)CSc2nccn2-c2ccc(F)cc2)cc1	inactive: 136%
O=C(c1ccco1)N(Cc1cccnc1)c1nc2c(F)cc(F)cc2s1	inactive: 71%
CCc1ccccc1NC(=O)Cn1cc(S(=O)(=O)N2CCCC2)c(S(=O)(=O)N2CCCC2)c1	inactive: 68%
Cc1cccc(-n2c(SCC(N)=O)nc3ccccc3c2=O)c1	inactive: 99%
Cc1ccccc1CNC(=O)c1ccc2nc(SCc3ccc(F)cc3)n(C)c2c1	inactive: 59%
CCOCCCNC(=O)C(c1ccccc1)N(Cc1ccc2c(c1)OCO2)C(=O)c1ccc(NC(C)=O)cc1 (stereo not given)	inactive: 70%
O=C(NCCNCc1ccco1)c1ccccc1	inactive: 115%
COc1ccccc1NC(=O)CSc1nncn2c1cc1sccc12	inactive: 96%
CCC(=O)C1=C(c2ccc(F)cc2)N(C(=O)CC)n2cnnc2S1	inactive: 133%
Cc1ccccc1CN1C(=O)c2ccccc2S(=O)c2ccc(C(=O)NCc3ccc(Cl)cc3)cc21 (stereo not given)	inactive: 92%
Cc1ccc2cccc(NC(=O)c3ccc(OC(C)C)cc3)c2n1	inactive: 106%

SMILES	survival
CCc1ccccc1NC(=O)CN(c1ccccc1)S(=O)(=O)c1ccsc1C(=O)OC	inactive: 131%
O=C(NCc1ccc2c(c1)OCO2)c1ccc2c(c1)N(Cc1ccccc1F)C(=O)c1ccccc1S2	inactive: 69%
CN(CCC(N)=O)Cc1ccccc1	inactive: 107%
CS(=O)(=O)N1CCSC1c1ccc(Cl)cc1Cl (stereo not given)	inactive: 121%
Cc1c(Cl)cccc1NC(=O)c1ccc2c(c1)CCCN2S(C)(=O)=O	inactive: 90%
CC(C)c1ccc(OCC(=O)NCCS(=O)(=O)N2CCN(c3ccc(F)cc3)CC2)cc1	inactive: 71%
Cc1ccc(CNC(=O)Nc2cc(C(=O)NCc3ccc(C(C)C)cc3)ccc2N2CCCC2)cc1	inactive: 71%
CC(C)(C)OC(=O)N1CCC(c2c(C(=O)NCCN3CCc4ccccc4C3)cnn2-c2ccc(F)cc2)CC1	inactive: 74%
CCCCOc1ccc(C(=O)Nc2ccc(-c3cc4ccccc4oc3=O)cc2)cc1	inactive: 75%
CCN1C(=O)c2ccccc2Sc2ccc(NC(=O)N3CCN(c4cc(C)ccc4C)CC3)cc21	inactive: 84%
CCOC(=O)c1ccc(NC(=O)C(CC)Sc2nc3ccncc3[nH]2)cc1 (stereo not given)	inactive: 136%
Cc1cc(C)cc(-n2c(C)cc(C(=O)C(=O)Nc3ccccc3F)c2C)c1	inactive: 92%
COc1ccccc1C(=O)N1c2ncnn2C2(CCCCC2)[C@@H]2CCCC[C@@H]21	inactive: 78%
COc1ccc(Cn2c(C(=O)O)c(CNC3CCCC3)c3ccc(OC)cc32)cc1	inactive: 91%
CCn1c(=O)cc(SCC(=O)NCc2cccc(Cl)c2)c2ccccc21	inactive: 60%
C=CCn1c(=N)c(C(N)=O)cc2c(=O)n3ccccc3nc21	inactive: 105%
CSc1nc(Nc2ccc(F)cc2)cc(-c2ccccc2)n1	active: -2%
CCOc1ccc(-c2nn(-c3ccccc3)cc2C2NC(=O)NC(C)=C2C(=O)OC(C)C)cc1 (stereo not given)	inactive: 89%
CCOc1ccc(-c2nnc(SCC(=O)Nc3cccc(OC)c3)nc2-c2ccc(OCC)cc2)cc1	active: -3%
O=C(NCC(c1ccc(Cl)cc1)N1CCOCC1)c1ccccc1F (stereo not given)	inactive: 91%
COc1cccc(C2CC(=O)Nc3c2c(=O)[nH]c2nc4ccccc4n32)c1 (stereo not given)	inactive: 151%
O=C(COc1ccc([N+](=O)[O-])cc1)Nc1nc2c(s1)CCCC2	inactive: 101%
COc1ccc(C(=O)NCC(c2ccc3c(c2)OCO3)N2CCN(c3ccccc3F)CC2)cc1 (stereo not given)	inactive: 77%

SMILES	survival
Cc1ccccc1-c1nnn(CC(=O)Nc2sc3c(c2C#N)CCC(C(C)(C)C)C3)n1 (stereo not given)	inactive: 78%
CCc1ccc(NC(=O)Cn2c(=O)n(CCCCC(=O)NCCc3ccc(Cl)cc3)c(=O)c3ccccc32)cc1	inactive: 98%
O=C1CCCc2cc(S(=O)(=O)N3CCCC(C(=O)NCc4ccc(Cl)cc4)C3)ccc2N1 (stereo not given)	inactive: 68%
COc1cc(OC)cc(-c2nc(-c3ccc4c(c3)[nH]c(=O)n4C)no2)c1	inactive: 73%
Cc1ccc2ncc(C(=O)Nc3ccc(OC(F)(F)F)cc3)c(=O)n2c1	inactive: 88%
O=c1[nH]c2ccc(NCc3ccc(-c4ccc(Br)cc4)o3)cc2[nH]1	inactive: 92%
CCOC(=O)c1c(NC(=O)c2nc(S(C)(=O)=O)ncc2Cl)sc(C(C)=O)c1C	inactive: 15%
Cc1ccc2c(c1)nnn2C1CCN(C(=O)Nc2ccc(C#N)cc2)CC1	inactive: 111%
Cc1ccc(-c2cc(C(=O)NCc3ccccc3Cl)c3ccccc3n2)cc1C	inactive: 54%
O=C(Nc1ccccc1C(F)(F)F)n1ncc2cc(Cl)ccc21	inactive: 105%
COc1ccc2cc3c(N)nn(C(=O)c4ccc(OC)c(OC)c4)c3nc2c1	inactive: 137%
COc1cccc(CNC(=O)C2CCN(S(=O)(=O)c3ccc4c(c3)CCCN4C(C)=O)CC2)c1	inactive: 132%
Cc1ccc2c(c1)N(CCCC(=O)Nc1cccc(C(F)(F)F)c1)C(=O)CO2	inactive: 83%
CCOC(=O)c1[nH]c2ccccc2c1NC(=O)c1ccc(Br)cc1	inactive: 111%
O=C(Nc1nncs1)C1c2ccccc2Oc2ccccc21	inactive: 110%
CCOc1ccc(-c2nc3c(c(SCC(=O)N4CCCCC4)n2)Cc2cccc(OC)c2O3)cc1	inactive: 75%
CCCCN1C(=O)C(O)(CC(=O)c2ccc(C(C)(C)C)cc2)c2ccccc21 (stereo not given)	active: 3%
COc1cc(NC(=O)Cn2cc(C(=O)c3ccc(F)cc3)c(=O)c3ccc(C)nc32)cc(OC)c1	inactive: 91%
Cc1ccc2nc3c(cc(C#N)c(=O)n3-c3nnc(SCc4ccccc4)s3)c(=O)n2c1	inactive: 101%
CCOc1ccc(NC(=O)c2ncoc2-c2ccco2)cc1	inactive: 80%
Cc1cccc(CSc2ncc(Cl)c(C(=O)Nc3nc4ccc(F)cc4s3)n2)c1	inactive: 77%
CN(C(=O)c1cccc(C#N)c1)c1nnc(C2CCOC2)s1 (stereo not given)	inactive: 111%
COc1cccc(CNC(=O)c2ccc(-n3c(C)cc4c3CCC(C)C4)cc2)c1 (stereo not given)	inactive: 66%

SMILES	survival
CC(C)NC(=O)c1ccc(NC(=O)N2CCCCc3ccccc32)cc1	inactive: 82%
CCOc1cc(C#N)c(NC(=O)Cn2nnc(-c3ccc(C)cc3)n2)cc1OCC	inactive: 81%
O=C(Cn1c(=O)nc(-c2ccccc2)c2cc(Cl)ccc21)Nc1ccc(F)c(Cl)c1	inactive: 84%
Cc1ccc(NC(=O)c2cnn3c2NC(c2ccccc2)=CC3c2ccccc2)cc1 (stereo not given)	inactive: 73%
CCCn1c2ccccc2c2nnc(SCC(=O)Nc3cccc(C(C)=O)c3)nc21	inactive: 83%
CCN(Cc1ccccc1)C(=O)c1cnn(-c2ccc(F)cc2)c1-n1cccc1	inactive: 71%
CCC(Sc1nnc(C)n2c1cc1occc12)C(=O)Nc1ccccc1OC (stereo not given)	inactive: 90%
CC(=O)c1sc(N2C(=O)c3oc4ccccc4c(=O)c3C2c2ccc(C)cc2)nc1C (stereo not given)	inactive: 92%
CCNc1nc(NC(N)=S)nc(NC(C)(C)C)n1	inactive: 112%
CC(=O)c1ccc(NC(=O)Cn2nc(N3CCN(c4ccccc4)CC3)ccc2=O)cc1	inactive: 71%
COc1ccccc1OC(C)C(=O)Nc1cccc(-c2nc3ccccc3o2)c1 (stereo not given)	active: 3%
CN1CCN(C(=O)/C=C/c2ccccc2)CC1	inactive: 94%
COc1ccccc1CNC(=O)CSC1=Nc2ccccc2N=C(c2ccc(F)cc2)C1	inactive: 73%
CCc1ccc(NS(=O)(=O)c2ccc3[nH]cc(C(=O)NCCCOC(C)C)c(=O)c3c2)cc1	inactive: 85%
Cc1ccc(Cl)cc1N1CCN(S(=O)(=O)c2ccc3c(c2)CCN3C(=O)C2CCC2)CC1	inactive: 89%
CCCSc1nc2c([nH]c3ccccc32)c(=O)n1C	inactive: 87%
O=C(NCc1cccnc1)c1nn(-c2ccc(F)cc2)nc1CO	inactive: 119%
N=c1c2c(-c3ccccc3)c(-c3ccccc3)n(Cc3ccco3)c2ncn1CCO	inactive: 106%
CC(C)c1nc2ccc(C(=O)Nc3ccccc3F)cc2o1	inactive: 72%
Cc1cc(NC(=O)c2cccc(F)c2)ccc1NC(=O)c1ccco1	inactive: 114%
Cn1cnnc1SCc1nc2ccccc2[nH]1	inactive: 92%
